Test results as given in a collection of fitness landscapes (doi:10.1038/s41467-024-54723-y).
Over roughly 18,000 sequences, “TetR repression strength (sort-seq, GFP reporter)” has its median near 0.23; the highest 2% begin near 0.68. This is one part of the list.

Biological target: TetR (class B, Tn10) (UniProt P04483)
Assay: TetR repression strength (sort-seq, GFP reporter) (relative to tetO2 = 1); higher = stronger repression
Conditions: E. coli
Procedure, shortened: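 Repression strength is the top bin index plus one minus the read-weighted mean bin, relative to the unaltered operator's value. A low-copy library in E. coli SIG10-MAX randomized eight operator positions between a constitutive promoter and sfGFP, with TetR expressed constitutively; cells grew 5 h at 37 °C in LB with 50 µg/mL chloramphenicol and 10^6 were FACS-sorted into 13 bins that were each Illumina-sequenced. Three independent transformations were averaged, keeping only members with ≥30 reads in all replicates and CV ≤0.5.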

Sequence of UniProt P04483 (P04483 whole entry): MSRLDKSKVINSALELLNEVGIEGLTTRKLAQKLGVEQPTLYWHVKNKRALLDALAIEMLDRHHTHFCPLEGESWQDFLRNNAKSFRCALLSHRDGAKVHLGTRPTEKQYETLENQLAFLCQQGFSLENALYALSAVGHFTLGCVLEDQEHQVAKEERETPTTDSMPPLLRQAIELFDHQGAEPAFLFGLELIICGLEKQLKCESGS

Sequence	TetR repression strength
TCCCTGCGAGTTCTAGAGA	0.253
TCCCTAAAAGTGAGGGAGA	0.245
TCCCTAGTAGTTGTAGAGA	0.333
TCCCAGGAAGTTGCAGAGA	0.0428
TCCCGACGAGTTCACGAGA	0.0691
TCCCGTGTAGTGCAGGAGA	0.237
TCCCGGACAGTCACGGAGA	0.216
TCCCATGCAGTTTGGGAGA	1.07
TCCCAGCAAGTTGGGGAGA	0.297
TCCCTTCTAGTGTAAGAGA	0.184
TCCCCTCCAGTCTCTGAGA	0.398
TCCCCCAGAGTGGGGGAGA	0.284
TCCCGGGTAGTCTAAGAGA	0.508
TCCCACGTAGTGACGGAGA	0.0259
TCCCAGGTAGTGGTTGAGA	0.212
TCCCTGGGAGTTAGAGAGA	0.832
TCCCGTAAAGTGGCAGAGA	0.155
TCCCGTCGAGTGAAGGAGA	0.311
TCCCGGAGAGTCGAAGAGA	0.542
TCCCAAAAAGTAGTCGAGA	0.25
TCCCGTCCAGTGGCGGAGA	0.116
TCCCGGTTAGTACTCGAGA	0.23
TCCCCATGAGTGGGAGAGA	0.294
TCCCGTTAAGTATGCGAGA	0.222
TCCCATACAGTGCGAGAGA	0.37
TCCCCTGGAGTAGGCGAGA	0.0907

Sequence	TetR repression strength
TCCCTACGAGTGTAGGAGA	0.14
TCCCCACAAGTGGTCGAGA	0.112
TCCCGCAAAGTTACCGAGA	0.432
TCCCTACGAGTGGGAGAGA	0.0829
TCCCGCATAGTTGGGGAGA	0.523
TCCCGCTCAGTGGTAGAGA	0.428
TCCCATGTAGTGCGGGAGA	0.0699
TCCCTTTCAGTTAGTGAGA	0.307
TCCCTCGTAGTGGATGAGA	0.206
TCCCGCGTAGTGATGGAGA	0.264
TCCCTCTGAGTAGCTGAGA	0.338
TCCCTTTTAGTAATAGAGA	0.204
TCCCGGTAAGTCGGTGAGA	0.258
TCCCCGTAAGTGTGGGAGA	0.0415
TCCCGCGCAGTATGTGAGA	0.484
TCCCGGTTAGTCGCTGAGA	0.22
TCCCGTCGAGTCGGGGAGA	0.281
TCCCGTAAAGTCGCGGAGA	0.0415
TCCCAGATAGTTTTAGAGA	0.151
TCCCTGTAAGTAATTGAGA	0.277
TCCCAGCCAGTTAGCGAGA	0.17
TCCCGCGCAGTTCGGGAGA	0.176
TCCCAATGAGTATCCGAGA	0.249
TCCCCATCAGTTTCTGAGA	0.348
TCCCATTAAGTGATCGAGA	0.344
TCCCTTACAGTAACCGAGA	0.261

Sequence	TetR repression strength
TCCCTCTAAGTTAAGGAGA	0.264
TCCCCGTGAGTTTCCGAGA	0.233
TCCCGTGTAGTGGTTGAGA	0.42
TCCCGGTGAGTCGGAGAGA	0.192
TCCCGGCGAGTCTTCGAGA	0.247
TCCCCGGGAGTGAAGGAGA	0.127
TCCCATTGAGTCGACGAGA	0.139
TCCCAATAAGTGGAAGAGA	0.286
TCCCAGAGAGTGAGGGAGA	0.204
TCCCTGGAAGTGTGTGAGA	0.0653
TCCCACGGAGTGGACGAGA	0.216
TCCCACGAAGTCGATGAGA	0.386
TCCCGCGCAGTGGAAGAGA	0.405
TCCCTATTAGTGCGGGAGA	0.21
TCCCCCACAGTGAGTGAGA	0.337
TCCCCCAAAGTGATGGAGA	0.0606
TCCCAGTTAGTGTGCGAGA	0.211
TCCCGGACAGTCATAGAGA	0.261
TCCCCGTTAGTCAATGAGA	0.396
TCCCCTTTAGTAGCGGAGA	0.203
TCCCGGTCAGTTCGTGAGA	0.17
TCCCTGGTAGTGTACGAGA	0.283
TCCCAGCTAGTACATGAGA	0.487
TCCCTCGAAGTGATCGAGA	0.343
TCCCCCGGAGTGGCGGAGA	0.294
TCCCTCTCAGTGGTGGAGA	0.245

Sequence	TetR repression strength
TCCCGTAAAGTAGTCGAGA	0.142
TCCCGCGTAGTCATGGAGA	0.23
TCCCGCGTAGTTTTAGAGA	0.3
TCCCCAGTAGTACTAGAGA	0.235
TCCCGGGGAGTACTTGAGA	0.142
TCCCTTGGAGTAACGGAGA	0.0447
TCCCGACGAGTTGGCGAGA	0.122
TCCCATCGAGTAAGCGAGA	0.325
TCCCTTGGAGTCTGAGAGA	0.104
TCCCGAAAAGTGTACGAGA	0.0562
TCCCGATTAGTCGGTGAGA	0.116
TCCCAATAAGTGGGTGAGA	0.31
TCCCTTGGAGTTTGTGAGA	0.121
TCCCTAGGAGTCGATGAGA	0.355
TCCCAATCAGTTCACGAGA	0.363
TCCCCGTGAGTGCATGAGA	0.122
TCCCATACAGTCTAAGAGA	0.158
TCCCCCACAGTTAGAGAGA	0.46
TCCCAGCAAGTGGTTGAGA	0.281
TCCCGCGGAGTGTTAGAGA	0.277
TCCCGAAGAGTGTTAGAGA	0.207
TCCCGCAAAGTGTCAGAGA	0.104
TCCCGTTGAGTCGCAGAGA	0.456
TCCCTGGAAGTGTTCGAGA	0.277
